# Laboratory results from publication PMC12136788.
# The other results are listed elsewhere or left out.
# T1: UNK ZnF1-6 (called full-length) (human, UniProt Q9C0B0 30-357)
# T1 sequence: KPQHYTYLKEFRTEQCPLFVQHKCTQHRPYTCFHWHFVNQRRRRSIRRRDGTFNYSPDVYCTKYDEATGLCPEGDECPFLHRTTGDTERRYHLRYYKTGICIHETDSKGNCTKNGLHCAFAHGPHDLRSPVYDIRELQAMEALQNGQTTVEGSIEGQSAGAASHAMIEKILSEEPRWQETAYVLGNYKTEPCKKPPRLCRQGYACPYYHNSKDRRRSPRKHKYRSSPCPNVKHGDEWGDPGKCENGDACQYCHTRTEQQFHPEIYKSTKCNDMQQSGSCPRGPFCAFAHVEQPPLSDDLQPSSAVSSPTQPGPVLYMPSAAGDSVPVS
# B1: chr4:17843545:17843646:+|3pUTR|ENSG00000109805|msi1|total|mutant (ssRNA)
# RNA: GGGAGUUCUACAGUCCGACGAUCCUGUGCGCUUCCACGUUACUUUGGCCUGUAUUAAAGCAGCCGAGCAGCAUCAGUUAUUACCGUCCAGAAAAAGUGUGCAUCAGUCAGUCACACAGAUUUAUCACAAUCUGAGGUGGGCCUCAACAGAGGAUUGAGCAUCA
# B2: chr9:130136078:130136182:+|3pUTR|ENSG00000148358|msi1_unk|FALSE|overlapping (ssRNA)
# RNA: GGGAGUUCUACAGUCCGACGAUCAGUCCAAGCAAAUCAUCCCCAUUAAAAAGCUUUUCCUGUAGGCUAGUAGGAUUUCUAAAUAGAUGAAUUCAACAGACUUGGUCCCCAUAGUCCAAGAGUAUGUAUGUGAAGAAAGUGAGCCAACAGAGGAUUGAGCAUCA
# B3: chr1:61462620:61462721:+|3pUTR|ENSG00000162599|unk|FALSE|unique (ssRNA)
# RNA: GGGAGUUCUACAGUCCGACGAUCCUGUGGGCGUCCAUUCUUAUUCAACUAAAUCUCCACAGGUUUUUUGAGCUGGUGUGGAUUAGUUUAACUCUUGUAUUCAACCAUUAGUGCUACCACCUUCUCACAUUACAAUACAAUUACCAACAGAGGAUUGAGCAUCA
# B4: ENSG00000070961:be:win_5201|3pUTR|ENSG00000070961|bound_else_gene|NA|bound_elsewhere_windowed (ssRNA)
# RNA: GGGAGUUCUACAGUCCGACGAUCUUUAGAUGCAAUAAUUAACCAUAUGCUAGAAUGCCCACCUCUAAGCCAAUUGGAUUCUUUAGCUCUCUUUUUCUUUCCUUCAUCUACCUUCUUCUCUUUUUUGCCUCUGUCUUUACCCUUCAACAGAGGAUUGAGCAUCA
# B5: chr13:49308649:49310813:-|three_prime_utr|ENSG00000102547|control|control|control (ssRNA)
# RNA: GGGAGUUCUACAGUCCGACGAUCGUCAUCAUUCUUGGGAAGACUUUGGAGGUGCCUAUUUUUUCUGCUGUAAUUGUUCUGGGUAGAUGGAGUAUAAACAUUUGAAUGGAAAAAAAUUAACCUAGAAUAAUAUAUUCAUUUUAGCAACAGAGGAUUGAGCAUCA
# B6: chr15:38352922:38353023:+|3pUTR|ENSG00000166068|msi1|FALSE|unique (ssRNA)
# RNA: GGGAGUUCUACAGUCCGACGAUCUACAUAUAAAUUUAUUUCUUUUGCAGAGCAUUAUAUUACUGGAUGUUUAAUUUACAAAAUAGUUGGGUAAAUGUUCCAACAAACUUUAAAGUACCUUGAAGUCAAAUUGUCUGUUUUUGUCAACAGAGGAUUGAGCAUCA
# B7: chr1:203741488:203741589:+|3pUTR|ENSG00000058668|msi1|FALSE|unique (ssRNA)
# RNA: GGGAGUUCUACAGUCCGACGAUCGCCAGUUCAUGUCCCUGACUCUCACCUCCCAUUAGAUAAAUGAAGCCCACCCCCCUUUCUAGAGUGAUGAGAGUCAAGAAGAGGGGAUGUAUGAACGGCCAAAUUCCCAUGUGAGAGGAACAACAGAGGAUUGAGCAUCA
# B8: chr1:228494639:228494729:+|3pUTR|ENSG00000168159|msi1_unk|FALSE|overlapping (ssRNA)
# RNA: GGGAGUUCUACAGUCCGACGAUCGCCAUCGUGUCUCAUCUUGCUGUUAUCUCUAGCUCUUUCCCUCCUCCCAUUUCCUUUAGUAGUUGAAUUUUGCAAAGCUUGUAGCAGUAGCUCAGUUGCCUGCAGCAUCCUUGUGUGUAGCAACAGAGGAUUGAGCAUCA
# B9: chr5:154417748:154417849:+|3pUTR|ENSG00000164574|msi1|FALSE|unique (ssRNA)
# RNA: GGGAGUUCUACAGUCCGACGAUCCAGCACCAGCUUUACAGGGCAGUGUUUCAGAUGGCCCUGAGCCCACGGAAAAGGCCAGGUAGACCUCCAAACUAGAAAUGCUGGCUGAUUUGCCCUGAUCCAUGCUUCCAUUUCCCUGUCCAACAGAGGAUUGAGCAUCA
# B10: chr20:3963869:3963970:-|CDS|ENSG00000101236|unk|total|mutant (ssRNA)
# RNA: GGGAGUUCUACAGUCCGACGAUCAAUCUGCCUCUCAACAUAUAUAUUGUGGUUUUUGGUACUGCUAUAUUUGUCUUCAUCCUCCGUUUACUCUUCUGUUGCUACUUGAUCCGGUAACCAAUUUUCAUUCUAUGUUACUUCAAACAACAGAGGAUUGAGCAUCA
# B11: chr4:113336597:113336699:+|CDS|ENSG00000145362|unk|total|mutant (ssRNA)
# RNA: GGGAGUUCUACAGUCCGACGAUCACCUAUGCACAGUGAGCUGGUUAAGAAGAUCCCCGGCAACAAAGCUACCUUCAGCCCUACCGUCACUUUGGAACCCCGAAGAAGAAAAUUCCACAAACCAAUUACCAUGACCAUUCCUGUCAACAGAGGAUUGAGCAUCA
# B12: chrX:41141081:41141111:+|CDS|ENSG00000124486|msi1_unk|total|mutant (ssRNA)
# RNA: GGGAGUUCUACAGUCCGACGAUCCACUCUUCAUACAGUGAAAAAGUACUUUCUUCCAAUAACCGAAAUGGUUCCACAGUUUUCCGAAAACUUAACUGAUGAAGAACUGAAAAAAGAAGCAAAGAAUGAAGCCAAAAAUGAUGCCAACAGAGGAUUGAGCAUCA
# B13: ENSG00000107863:be:win_5251|CDS|ENSG00000107863|bound_else_gene|NA|bound_elsewhere_windowed (ssRNA)
# RNA: GGGAGUUCUACAGUCCGACGAUCAGAGGCGAAUCCGAAAAACAGGAACCCACAUGGAAAACGAAAAUAGCAGAUCGGUUAAAACUGAGACCCAGAGCCCCUGCGGAUGACAUGUUUGGAGUAGGGAAUCACAAAGUGAAUGCCCAACAGAGGAUUGAGCAUCA
# B14: ENSG00000178764:stop:overlap|stop_codon|ENSG00000178764|stop_codon|NA|stop_codon (ssRNA)
# RNA: GGGAGUUCUACAGUCCGACGAUCGUGUGUCGGAACUGGCUGAAUCAGACUCCGACUGCGUCCCUGCAGAGGCUGGCCAGGCCUAGACAGGGAAGUCUGUUAGAACUGCUGUGCUGAUCAACGGGACGCUCCGUCUUUGAAGAACAACAGAGGAUUGAGCAUCA
# B15: chr12:103267852:103268962:-|three_prime_utr|ENSG00000179088|control|control|control (ssRNA)
# RNA: GGGAGUUCUACAGUCCGACGAUCUCCUGCACCUGCCUUCUUGAAAGAAAACAAGACAUCAGAUACUUAUUCAAAUAAUGGAAUAGCUGAUCAACUGGGUCUCCACACAAAAGAGAGUUAUCCAUGAUAAAAGAACAACUUUUUCAACAGAGGAUUGAGCAUCA
# B16: chr7:94537565:94537673:+|CDS|ENSG00000127995|unk|total|mutant (ssRNA)
# RNA: GGGAGUUCUACAGUCCGACGAUCGAAGCCUGCCGAUGGGUCCUGUUGUCAACCUCGGCCUCCUGUUACUCUCAUACAGAAGCCCGCUGCUUGUUUUUUCACUUUAUCUAUUAUCGGAUAUUUAAUUUUUUACAUAAUUCAUCGCAACAGAGGAUUGAGCAUCA
# B17: chr2:99394746:99394872:+|CDS|ENSG00000158417|unk|FALSE|unique (ssRNA)
# RNA: GGGAGUUCUACAGUCCGACGAUCGAUGUGAGAAUUGAACGAGAUGCACAAGAAAUGGCUGAUAGUUUAGGAGUUAGAAUUUUUAGUGCAGAAAUUAUUUAUCAUUUAUUUGAUGCCUUUACAAAAUAUAGACAAGACUACAAGCAACAGAGGAUUGAGCAUCA
# B18: chr2:27243795:27243896:+|3pUTR|ENSG00000084774|unk|total|mutant (ssRNA)
# RNA: GGGAGUUCUACAGUCCGACGAUCACUUAAUAAACAGCCGAGCUGUCCCUUGAUGCUGAGUGCCGCCGAACAGAGCUUUCUUUCCGAAAAUUGAGCAGAUUCCCAAAUUAUAAGAGCAGCCUCACCAGGCAGGGCUCUGGCCCGCAACAGAGGAUUGAGCAUCA
# B19: chr2:207821287:207828318:-|three_prime_utr|ENSG00000178385|control|control|control (ssRNA)
# RNA: GGGAGUUCUACAGUCCGACGAUCACCCGAAGGCCAGGGAUUCACCAAUCAACAAUCCAUCAGCCCCAGAGCGGCCUCCUAACUAGCCAGUUAGACCCCUUUGGAAGAAGAGUAUGUAUCCUCUUCAACUAGAUAUAGAUAUAUCAACAGAGGAUUGAGCAUCA
# B20: chr3:62294137:62294238:+|3pUTR|ENSG00000144724|msi1|FALSE|unique (ssRNA)
# RNA: GGGAGUUCUACAGUCCGACGAUCUGAGACCCUUUAGUUAUUCUCCAUUAAUGCUUCUUAGUUUGUAAUACCAUACCUCACAGUAGGUAGAAGAAUGAAAACUUCUGCAGGUGUGUAAUUUUGAAACUAGUCCUCUAAAAAUUCCAACAGAGGAUUGAGCAUCA
# B21: ENSG00000070961:be:win_3701|3pUTR|ENSG00000070961|bound_else_gene|NA|bound_elsewhere_windowed (ssRNA)
# RNA: GGGAGUUCUACAGUCCGACGAUCAGAAACAAAUUGAAACUGGGUCUUUUCACAUAUUGUGAUGGACAAGCUAGUAUUCUUGUCUUUGGACUUCAACAGAAGACACACUUGUACGAAUGUAGAUUUAUUUUUUUAAAAAAAAAACAACAGAGGAUUGAGCAUCA
# B22: chr1:9729969:9730061:-|3pUTR|ENSG00000171603|msi1_unk|FALSE|overlapping (ssRNA)
# RNA: GGGAGUUCUACAGUCCGACGAUCGUUUUUAUUUUUUCCAAACUAGUGCAUGUAUAAAUAAUGGCAGGAUGGGGGGUACUGUGUAGAUGAUUAACUGACUUUUUAAUAUUUUGUAAAUAAAUCGGAUUCCUUGUGUCCUUUGUGCAACAGAGGAUUGAGCAUCA
# Molecular target: T1, UNK ZnF1-6 (called full-length)
# Assay: nsRBNS (natural sequence RNA bind-n-seq); RBNS binding buffer (assumed for nsRBNS): 25 mM Tris pH 7.5, 150 mM KCl, 3 mM MgCl2, 0.01% Triton X-100, 500 ug/ml BSA, 20 U/ml SUPERase-In, 4 C; UNK is unkempt and MSI1 is Musashi-1; names of the RNAs are library labels; protein concentration not given here; high values mean tight binding
row,Binder,binding signal
1,B1,0.776 enrichment R
2,B2,3.46 enrichment R
3,B3,1.61 enrichment R
4,B4,7.26 enrichment R
5,B5,1.63 enrichment R
6,B6,1.48 enrichment R
7,B7,2.67 enrichment R
8,B8,14.7 enrichment R
9,B9,1.03 enrichment R
10,B10,0.575 enrichment R
11,B11,0.678 enrichment R
12,B12,0.336 enrichment R
13,B13,0.853 enrichment R
14,B14,4.22 enrichment R
15,B15,0.289 enrichment R
16,B16,1.58 enrichment R
17,B17,15.9 enrichment R
18,B18,0.797 enrichment R
19,B19,3.47 enrichment R
20,B20,16.2 enrichment R
21,B21,0.968 enrichment R
22,B22,22 enrichment R
